{"source": "paper PMC5700166", "experiment_in_all_cases": "protein-binding microarray (PBM)", "conditions_in_all_cases": "PBM: ~300 nM protein, 6 mM HEPES pH 7.8, 80 mM KCl, 0.5 mM EDTA, 0.5 mM EGTA, 6% glycerol, 35 ng/ul poly-dIdC, 1% milk, 1 h, room temperature; Ap Aiptasia and Nv Nematostella (sea anemones) / Co Capsaspora / Aq Amphimedon (sponge) / Dm Drosophila / Hu human; RHD is the Rel homology domain; high values mean tight binding; most listed sequences are background and not binding sites; double strand, one strand shown", "key": {"GST-Ap-NF-kB RHD": {"target": "T1, GST-Ap-NF-kB RHD (UniProt A0A913YAJ5)", "T1 sequence": "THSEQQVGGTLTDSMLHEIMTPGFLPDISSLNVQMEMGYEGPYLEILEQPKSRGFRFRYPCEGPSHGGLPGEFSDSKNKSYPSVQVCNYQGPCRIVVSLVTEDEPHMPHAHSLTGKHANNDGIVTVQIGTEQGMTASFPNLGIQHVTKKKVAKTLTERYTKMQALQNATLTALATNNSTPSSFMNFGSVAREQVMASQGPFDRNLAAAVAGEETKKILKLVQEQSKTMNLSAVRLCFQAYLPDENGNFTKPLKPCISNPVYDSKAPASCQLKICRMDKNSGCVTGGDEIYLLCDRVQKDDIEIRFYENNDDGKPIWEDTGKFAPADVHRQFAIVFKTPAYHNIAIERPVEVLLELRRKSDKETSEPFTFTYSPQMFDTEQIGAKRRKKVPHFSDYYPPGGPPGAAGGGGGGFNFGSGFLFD"}, "[1]": {"target": "T2, GST-Nv-NF-kB (Cys allele) (UniProt E5G601)", "T2 sequence": "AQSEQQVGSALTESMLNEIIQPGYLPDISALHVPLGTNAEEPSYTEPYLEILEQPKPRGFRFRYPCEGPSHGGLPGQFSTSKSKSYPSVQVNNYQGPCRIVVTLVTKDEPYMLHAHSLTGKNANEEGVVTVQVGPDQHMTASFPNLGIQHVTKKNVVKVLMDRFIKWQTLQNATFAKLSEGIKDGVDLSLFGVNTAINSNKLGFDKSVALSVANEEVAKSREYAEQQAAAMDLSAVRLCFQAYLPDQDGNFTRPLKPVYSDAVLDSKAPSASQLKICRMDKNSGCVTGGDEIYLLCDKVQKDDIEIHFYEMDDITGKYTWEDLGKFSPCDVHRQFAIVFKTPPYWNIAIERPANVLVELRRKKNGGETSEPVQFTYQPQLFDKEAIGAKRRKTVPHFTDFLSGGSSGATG"}, "GST-Co-NF-kB": {"target": "T3, GST-Co-NF-kB (UniProt F1ARL5)", "T3 sequence": "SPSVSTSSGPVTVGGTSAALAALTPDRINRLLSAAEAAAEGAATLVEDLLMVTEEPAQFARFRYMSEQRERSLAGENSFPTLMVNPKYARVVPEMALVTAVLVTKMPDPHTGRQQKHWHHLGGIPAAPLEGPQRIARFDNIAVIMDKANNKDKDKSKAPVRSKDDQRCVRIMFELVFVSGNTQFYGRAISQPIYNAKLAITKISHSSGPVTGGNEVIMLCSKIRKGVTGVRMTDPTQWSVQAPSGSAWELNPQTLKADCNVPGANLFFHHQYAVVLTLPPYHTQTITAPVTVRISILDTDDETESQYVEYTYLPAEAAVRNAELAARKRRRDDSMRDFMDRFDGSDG"}, "GST-Dm-Relish": {"target": "T4, GST-Dm-Relish (UniProt Q94527)", "T4 sequence": "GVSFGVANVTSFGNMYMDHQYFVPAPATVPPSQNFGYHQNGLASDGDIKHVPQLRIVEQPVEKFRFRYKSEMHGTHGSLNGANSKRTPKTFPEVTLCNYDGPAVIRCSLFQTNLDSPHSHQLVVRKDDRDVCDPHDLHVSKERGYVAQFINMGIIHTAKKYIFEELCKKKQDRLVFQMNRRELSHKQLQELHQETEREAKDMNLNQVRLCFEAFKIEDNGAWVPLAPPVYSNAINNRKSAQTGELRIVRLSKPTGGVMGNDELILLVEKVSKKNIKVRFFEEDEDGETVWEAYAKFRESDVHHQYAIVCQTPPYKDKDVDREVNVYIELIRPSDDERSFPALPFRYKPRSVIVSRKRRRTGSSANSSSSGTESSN"}, "GST-Aq-NF-kB": {"target": "T5, GST-Aq-NF-kB (UniProt A9Y5G7)", "T5 sequence": "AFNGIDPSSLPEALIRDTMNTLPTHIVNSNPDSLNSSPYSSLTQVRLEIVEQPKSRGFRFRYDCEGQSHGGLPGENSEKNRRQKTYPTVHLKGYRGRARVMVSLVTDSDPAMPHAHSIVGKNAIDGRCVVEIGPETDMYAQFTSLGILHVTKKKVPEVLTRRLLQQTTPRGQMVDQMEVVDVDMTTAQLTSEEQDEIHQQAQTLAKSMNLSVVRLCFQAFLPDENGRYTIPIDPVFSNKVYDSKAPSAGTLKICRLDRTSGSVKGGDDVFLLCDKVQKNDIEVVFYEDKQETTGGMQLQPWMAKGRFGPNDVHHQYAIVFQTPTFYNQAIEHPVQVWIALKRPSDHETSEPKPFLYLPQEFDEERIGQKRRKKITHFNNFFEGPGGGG"}}, "note": "The entries are a selection whose mix differs from that of the whole data set. The list includes weakly bound sequences.", "data": [{"sequence": "CCGATTAACATCACGGCCTTTCCTGATGTTAATCGGGTCTTGATTCGCTTGACGCTGCTG", "values": [{"measurement": "binding signal", "setting": "GST-Ap-NF-kB RHD", "result": 0.226, "unit": "z-score"}, {"measurement": "binding signal", "setting": "[1]", "result": -0.373, "unit": "z-score"}, {"measurement": "binding signal", "setting": "GST-Co-NF-kB", "result": -0.51, "unit": "z-score"}, {"measurement": "binding signal", "setting": "GST-Dm-Relish", "result": 1.05, "unit": "z-score"}, {"measurement": "binding signal", "setting": "GST-Aq-NF-kB", "result": 1.82, "unit": "z-score"}]}, {"sequence": "CCGATTAACATCAAGCACATGATTGATGTTAATCGGGTCTTGATTCGCTTGACGCTGCTG", "values": [{"measurement": "binding signal", "setting": "GST-Ap-NF-kB RHD", "result": -0.792, "unit": "z-score"}, {"measurement": "binding signal", "setting": "[1]", "result": -0.202, "unit": "z-score"}, {"measurement": "binding signal", "setting": "GST-Co-NF-kB", "result": -1.27, "unit": "z-score"}, {"measurement": "binding signal", "setting": "GST-Dm-Relish", "result": -0.448, "unit": "z-score"}, {"measurement": "binding signal", "setting": "GST-Aq-NF-kB", "result": -0.635, "unit": "z-score"}]}, {"sequence": "CCGATTAACATCAGATTTATAACTGATGTTAATCGGGTCTTGATTCGCTTGACGCTGCTG", "values": [{"measurement": "binding signal", "setting": "GST-Ap-NF-kB RHD", "result": -0.76, "unit": "z-score"}, {"measurement": "binding signal", "setting": "[1]", "result": -0.391, "unit": "z-score"}, {"measurement": "binding signal", "setting": "GST-Co-NF-kB", "result": -0.638, "unit": "z-score"}, {"measurement": "binding signal", "setting": "GST-Dm-Relish", "result": -0.407, "unit": "z-score"}, {"measurement": "binding signal", "setting": "GST-Aq-NF-kB", "result": -0.573, "unit": "z-score"}]}, {"sequence": "CCGATTAACATCAAATAGATGGCTGATGTTAATCGGGTCTTGATTCGCTTGACGCTGCTG", "values": [{"measurement": "binding signal", "setting": "GST-Ap-NF-kB RHD", "result": -0.231, "unit": "z-score"}, {"measurement": "binding signal", "setting": "[1]", "result": -0.823, "unit": "z-score"}, {"measurement": "binding signal", "setting": "GST-Co-NF-kB", "result": -0.223, "unit": "z-score"}, {"measurement": "binding signal", "setting": "GST-Dm-Relish", "result": -0.561, "unit": "z-score"}, {"measurement": "binding signal", "setting": "GST-Aq-NF-kB", "result": -0.349, "unit": "z-score"}]}, {"sequence": "CCGATTAACATCATCGGATAACATGATGTTAATCGGGTCTTGATTCGCTTGACGCTGCTG", "values": [{"measurement": "binding signal", "setting": "GST-Ap-NF-kB RHD", "result": -0.756, "unit": "z-score"}, {"measurement": "binding signal", "setting": "[1]", "result": 0.0981, "unit": "z-score"}, {"measurement": "binding signal", "setting": "GST-Co-NF-kB", "result": -0.134, "unit": "z-score"}, {"measurement": "binding signal", "setting": "GST-Dm-Relish", "result": -0.014, "unit": "z-score"}, {"measurement": "binding signal", "setting": "GST-Aq-NF-kB", "result": -0.316, "unit": "z-score"}]}, {"sequence": "CCGATTAACATCAAGCGGTATTATGATGTTAATCGGGTCTTGATTCGCTTGACGCTGCTG", "values": [{"measurement": "binding signal", "setting": "GST-Ap-NF-kB RHD", "result": 0.536, "unit": "z-score"}, {"measurement": "binding signal", "setting": "[1]", "result": -0.154, "unit": "z-score"}, {"measurement": "binding signal", "setting": "GST-Co-NF-kB", "result": -0.448, "unit": "z-score"}, {"measurement": "binding signal", "setting": "GST-Dm-Relish", "result": -0.262, "unit": "z-score"}, {"measurement": "binding signal", "setting": "GST-Aq-NF-kB", "result": 0.242, "unit": "z-score"}]}, {"sequence": "CCGATTAACATCATATCTTCAGGTGATGTTAATCGGGTCTTGATTCGCTTGACGCTGCTG", "values": [{"measurement": "binding signal", "setting": "GST-Ap-NF-kB RHD", "result": 0.356, "unit": "z-score"}, {"measurement": "binding signal", "setting": "[1]", "result": -0.525, "unit": "z-score"}, {"measurement": "binding signal", "setting": "GST-Co-NF-kB", "result": -0.0345, "unit": "z-score"}, {"measurement": "binding signal", "setting": "GST-Dm-Relish", "result": 0.394, "unit": "z-score"}, {"measurement": "binding signal", "setting": "GST-Aq-NF-kB", "result": 0.275, "unit": "z-score"}]}, {"sequence": "CCGATTAACATCAAATTTTCCGTTGATGTTAATCGGGTCTTGATTCGCTTGACGCTGCTG", "values": [{"measurement": "binding signal", "setting": "GST-Ap-NF-kB RHD", "result": -0.342, "unit": "z-score"}, {"measurement": "binding signal", "setting": "[1]", "result": -0.323, "unit": "z-score"}, {"measurement": "binding signal", "setting": "GST-Co-NF-kB", "result": 0.393, "unit": "z-score"}, {"measurement": "binding signal", "setting": "GST-Dm-Relish", "result": 0.673, "unit": "z-score"}, {"measurement": "binding signal", "setting": "GST-Aq-NF-kB", "result": 0.992, "unit": "z-score"}]}, {"sequence": "CCGATTAACATCAGGATATGCCCTGATGTTAATCGGGTCTTGATTCGCTTGACGCTGCTG", "values": [{"measurement": "binding signal", "setting": "GST-Ap-NF-kB RHD", "result": 0.104, "unit": "z-score"}, {"measurement": "binding signal", "setting": "[1]", "result": 0.147, "unit": "z-score"}, {"measurement": "binding signal", "setting": "GST-Co-NF-kB", "result": -0.678, "unit": "z-score"}, {"measurement": "binding signal", "setting": "GST-Dm-Relish", "result": 0.0206, "unit": "z-score"}, {"measurement": "binding signal", "setting": "GST-Aq-NF-kB", "result": 1.7, "unit": "z-score"}]}]}
